# Measured values: US11685745B2, “Substituted benzoxazole and benzofuran compounds as PDE7 inhibitors” (Dart NeuroScience, LLC, priority 2017, dated 2023)
# Biological target: N-terminal truncated recombinant human PDE7B enzyme (Homo sapiens (Human), UniProt Q9NP56)
# Assay: biochemical
row,Compound,IC50 [µM]
1,"C=CCN(C)C(=O)c1cc2cc(Cl)c3c(c2o1)C1(CCCCC1)NC(=O)N3 [Example 384, 5′-Chloro-N-methyl-7′-oxo-N-(prop-2-en-1-yl)-7′,8′-dihydro-6′H-spiro[cyclohexane-1,9′-furo[2,3-f]quinazoline]-2′-carboxamide]",0.01 to 0.1
2,"O=C1Nc2c(Cl)cc3nc(CNCc4ccno4)oc3c2C2(CCCCC2)N1 [Example 175, 5-Chloro-2-{[(1,2-oxazol-5-ylmethyl)amino]methyl}-7,8-dihydro-6H-spiro[[1,3]oxazolo[5,4-f]quinazoline-9,1′-cyclohexane]-7-one]",0.01 to 0.1
3,"COCCN(C)C(=O)c1nc2cc(Cl)c3c(c2o1)C1(CCCCC1)NC(=O)N3 [Example 185, 5-Chloro-N-(2-methoxyethyl)-N-methyl-7-oxo-7,8-dihydro-6H-spiro[[1,3]oxazolo[5,4-f]quinazoline-9,1′-cyclohexane]-2-carboxamide]",0.01 to 0.1
4,"O=C1Nc2c(Cl)cc3nc(CNC4CCCC4(F)F)oc3c2C2(CCCCC2)N1 (stereo not shown) [Example 165, 5-Chloro-2-{[(2,2-difluorocyclopentyl)amino]methyl}-7,8-dihydro-6H-spiro[[1,3]oxazolo[5,4-f]quinazoline-9,1′-cyclohexane]-7-one]",0.01 to 0.1
5,"CN(C)CCN(C)C(=O)c1cc2cc(Cl)c3c(c2o1)C1(CCCCC1)NC(=O)N3 [Example 430, 5′-Chloro-N-[2-(dimethylamino)ethyl]-N-methyl-7′-oxo-7′,8′-dihydro-6′H-spiro[cyclohexane-1,9′-furo[2,3-f]quinazoline]-2′-carboxamide]",0.1 to 1
6,"O=C1Nc2c(Cl)cc3cc(CN4CCC5(CC4)CC5)oc3c2C2(CCCCC2)N1 [Example 526, 2′-{6-Azaspiro[2.5]octan-6-ylmethyl}-5′-chloro-7′,8′-dihydro-6′H-spiro[cyclohexane-1,9′-furo[2,3-f]quinazoline]-7′-one]",0.1 to 1
7,"O=C1Nc2c(Cl)cc3cc(C(=O)NCCn4cccc4)oc3c2C2(CCCCC2)N1 [Example 275, 5′-Chloro-7′-oxo-N-[2-(1H-pyrrol-1-yl)ethyl]-7′,8′-dihydro-6′H-spiro[cyclohexane-1,9′-furo[2,3-f]quinazoline]-2′-carboxamide]",0.01 to 0.1
8,"O=C1Nc2c(Cl)cc3cc(C(=O)N4CCn5c(-c6ccccc6)cnc5C4)oc3c2C2(CCCCC2)N1 [Example 319, 5′-Chloro-2′-{3-phenyl-5H,6H,7H,8H-imidazo[1,2-a]pyrazine-7-carbonyl}-7′,8′-dihydro-6′H-spiro[cyclohexane-1,9′-furo[2,3-f]quinazoline]-7′-one]",0.01 to 0.1
9,"O=C1Nc2c(Cl)cc3cc(C(=O)N4CCC(O)C4)oc3c2C2(CCCCC2)N1 (stereo not shown) [Example 411, 5′-Chloro-2′-(3-hydroxypyrrolidine-1-carbonyl)-7′,8′-dihydro-6′H-spiro[cyclohexane-1,9′-furo[2,3-f]quinazoline]-7′-one]",0.01 to 0.1
10,"O=C1Nc2c(Cl)cc3cc(C(=O)NC(CO)Cc4ccccc4)oc3c2C2(CCCCC2)N1 (stereo not shown) [Example 456, 5′-Chloro-N-(1-hydroxy-3-phenylpropan-2-yl)-7′-oxo-7′,8′-dihydro-6′H-spiro[cyclohexane-1,9′-furo[2,3-f]quinazoline]-2′-carboxamide]",0.01 to 0.1
11,"COCCNCc1nc2cc(F)c3c(c2o1)C1(CCCCC1)NC(=O)N3 [Example 223, 5-Fluoro-2-{[(2-methoxyethyl)amino]methyl}-7,8-dihydro-6H-spiro[[1,3]oxazolo[5,4-f]quinazoline-9,1′-cyclohexane]-7-one]",0.1 to 1
12,"CCn1ncc2c(c1=O)CCN(C(=O)c1cc3cc(Cl)c4c(c3o1)C1(CCCCC1)NC(=O)N4)C2 [Example 386, 5′-Chloro-2′-{2-ethyl-1-oxo-1H,2H,5H,6H,7H,8H-pyrido[3,4-d]pyridazine-6-carbonyl}-7′,8′-dihydro-6′H-spiro[cyclohexane-1,9′-furo[2,3-f]quinazoline]-7′-one]",0.1 to 1
13,"CC(=O)NCCNCc1cc2cc(Cl)c3c(c2o1)C1(CCCCC1)NC(=O)N3 [Example 569, N-[2-({5′-Chloro-7′-oxo-7′,8′-dihydro-6′H-spiro[cyclohexane-1,9′-furo[2,3-f]quinazoline]-2′-ylmethyl}amino)ethyl]acetamide]",0.01 to 0.1
14,"CCN(C)C(=O)c1cc2cc(Cl)c3c(c2o1)C1(CCCCC1)NC(=O)N3 [Example 374, 5′-Chloro-N-ethyl-N-methyl-7′-oxo-7′,8′-dihydro-6′H-spiro[cyclohexane-1,9′-furo[2,3-f]quinazoline]-2′-carboxamide]",0.01 to 0.1
15,"CN(CC(=O)N(C)C)Cc1nc2cc(F)c3c(c2o1)C1(CCCCC1)NC(=O)N3 [Example 224, 2-({5-Fluoro-7-oxo-7,8-dihydro-6H-spiro[[1,3]oxazolo[5,4-f]quinazoline-9,1′-cyclohexane]-2-ylmethyl}(methyl)amino)-N,N-dimethylacetamide]",0.01 to 0.1
16,"Cc1cc(C)n(CCCN(C)Cc2cc3cc(Cl)c4c(c3o2)C2(CCCCC2)NC(=O)N4)n1 [Example 551, 5′-Chloro-2′-({[3-(3,5-dimethyl-1H-pyrazol-1-yl)propyl](methyl)amino}methyl)-7′,8′-dihydro-6′H-spiro[cyclohexane-1,9′-furo[2,3-f]quinazoline]-7′-one]",0.01 to 0.1
17,"COc1ccc(CNC(=O)c2cc3cc(Cl)c4c(c3o2)C2(CCCCC2)NC(=O)N4)c(F)c1F [Example 302, 5′-Chloro-N-[(2,3-difluoro-4-methoxyphenyl)methyl]-7′-oxo-7′,8′-dihydro-6′H-spiro[cyclohexane-1,9′-furo[2,3-f]quinazoline]-2′-carboxamide]",0.1 to 1
18,"CN(CCN(C)C(=O)c1cc2cc(Cl)c3c(c2o1)C1(CCCCC1)NC(=O)N3)Cc1ccccc1 [Example 28, N-(2-(Benzyl(methyl)amino)ethyl)-5′-chloro-N-methyl-7′-oxo-7′,8′-dihydro-6′H-spiro[cyclohexane-1,9′-furo[2,3-f]quinazoline]-2′-carboxamide]",0.01 to 0.1
19,"O=C1Nc2c(Cl)cc3cc(CN4CCC(CO)CC4)oc3c2C2(CCCCC2)N1 [Example 570, 5′-Chloro-2′-{[4-(hydroxymethyl)piperidin-1-yl]methyl}-7′,8′-dihydro-6′H-spiro[cyclohexane-1,9′-furo[2,3-f]quinazoline]-7′-one]",0.1 to 1
20,"CN1CCC(CNC(=O)c2cc3cc(Cl)c4c(c3o2)C2(CCCCC2)NC(=O)N4)CC1 [Example 308, 5′-Chloro-N-[(1-methylpiperidin-4-yl)methyl]-7′-oxo-7′,8′-dihydro-6′H-spiro[cyclohexane-1,9′-furo[2,3-f]quinazoline]-2′-carboxamide]",0.1 to 1
21,"COCC(C)(C)NC(=O)c1cc2cc(Cl)c3c(c2o1)C1(CCCCC1)NC(=O)N3 [Example 349, 5′-Chloro-N-(1-methoxy-2-methylpropan-2-yl)-7′-oxo-7′,8′-dihydro-6′H-spiro[cyclohexane-1,9′-furo[2,3-f]quinazoline]-2′-carboxamide]",0.01 to 0.1
22,"COC(=O)CCC1CCCCN1C(=O)c1cc2cc(Cl)c3c(c2o1)C1(CCCCC1)NC(=O)N3 (stereo not shown) [Example 458, Methyl 3-[1-({5′-chloro-7′-oxo-7′,8′-dihydro-6′H-spiro[cyclohexane-1,9′-furo[2,3-f]quinazoline]-2′-yl}carbonyl)piperidin-2-yl]propanoate]",0.01 to 0.1
